Results: the RNAGym collection of RNA variant scans (doi:10.1073/pnas.2313332121)
Variants at the floor of the assay are shown more often than the library holds them.

B1: TPR 5TU (parent)
chain: GGAUCUUCUCGAUCUAACAAAAAAGACAAAUCUGCCACAAAGCUUGAGAGCAUCUUCGGAUGCAGAGGCGGCAGCCUUCGGUGGCGCGAUAGCGCCAACGUUCUCAACUAUGACACGCAAAACGCGUGCUCCGUUGAAUGGAGUUUAUCAUG

Variants of: B1
Experiment: polymerase ribozyme fitness, log enrichment relative to wild type (log ratio); higher = more active; in vitro selection for triplet polymerase activity
Summary of the method: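 Both subunits of a heterodimeric triplet polymerase ribozyme were given their own mutant library, built by PCR and transcribed. Each library was annealed with a biotinylated primer, the partner subunit and triplets, incubated frozen at −7 °C, and its extended constructs gel-excised, captured on streptavidin beads and amplified by RT-PCR, all in one round done in triplicate. Fitness is the logarithm of genotype enrichment relative to wild-type enrichment, with replicates averaged by inverse-variance weighting. That logarithm is base 2, and Illumina-sequenced genotypes needed ≥10 input reads and ≥1 read per output.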

Polymerase ribozyme fitness (log ratio), -0.0966:
G34A C95U G136A

Polymerase ribozyme fitness (log ratio), -4:
U33C G59A A60U U145G

Polymerase ribozyme fitness (log ratio), -3.85:
U33C G50A

Polymerase ribozyme fitness (log ratio), -3.87:
U33G G58U A91C G143U

Polymerase ribozyme fitness (log ratio), -2.7:
U33G C116U

Polymerase ribozyme fitness (log ratio), ≤ -4.2:
U33A G50C U61A A73C C93A
U33A U44A G46U G59A C93G C103U U104A U135A C149G
U33A U53A U148C
U33A U56A C79G C96G A137C
U33C A41U G42A G88A G92A
U33C A97U U101G C114G
U33C C36A C85A A106U A113U
U33C C43U G126U
U33C C54A G83C C108G U146A C149A
U33C C54U C96U A107C
U33C C57G G88A G92A U146A
U33C G34U G50U G58C C103G A120G U148A
U33C G42A A91U C93G A142C
U33C G42A G81A A89G A119C C132U
U33C G50A C51U G83A C95U G143U
U33C G50C U55A G58C C85A C116U
U33C G59A C99U U109G
U33G A39U G50A A52C C95G A97G C125U A142C G143U
U33G A52U C75U C85U U144A
U33G A60G C85A A97U A142C
U33G C35A A66G C93U U104G C105U U134G
U33G C35G A60G A107G
U33G C35G U53A C85A C87U
U33G C38G G92A A150C
U33G C38U C51A C54G C57A C79G C87U G128A
U33G C43A C76U G92U C103U U148A
U33G C54A G74A
U33G C54A G86A C87G A119U A122U G143C A147C
U33G C57A G84A A89U C108A A110C U146C
U33G C63U G92U C93A A113C A121U
U33G C75G C96U A121G A142U
U33G C93G A120G
U33G C93U C116G
U33G C103G G112U G133U U151A
U33G G42A G58C A91G G100A
U33G G42A U45A G50A U77C C105G
U33G G42C A47C A91G G140U U145C
U33G G48A C57G G62U C76G G84A A89G G141A
U33G G50C G86C U90A G100C G124U C132G U148A G152U
U33G G58C C95G C131U
U33G G59U A73U U82G C85A C103A A107C
U33G G62C C125U
U33G G67A G81C C87U G100U A121G
U33G G74A C76A G84U U144A
U33G G84A C85U A106G A107G
U33G G92A
U33G U44A G81A A115C U144A
U33G U55G G68A C79A G84U G136U
U33G U56A G83U C87U U102G A119G
U33G U77G C85G
G34A A49U C57A U61A C96U A98G A142U U148G
G34A C35U U56G C95U C116U A142U
G34A C36G U127G U148C
G34A C36U C93A C118G A142U
G34A C43U C69G C87U G100A C118U
G34A C57A C87U A89U G94U C96A U104A C105G A110U G126U
G34A C57U G86U C99U C105G C108U
G34A C75A C85U C87A U101C A106C A122G
G34A C79U U144A
G34A C87A G141A
G34A C87U A89U G100A C103G A107U G124C U135G G140A G141C
G34A G58C A73C G84A G94A C108A
G34A G59C G71U G84U C116G A150U
G34A G80C U109C A110G U135A U151G
G34A U55A C99U G112A C116U
G34A U56A C85G A91G U101G C103G U127G U145C
G34A U77G C87A A91C C108U G133A
G34C A39C U55A A60U A73U U146G
G34C A41G C54A U135C U145G
G34C A47U G59U C87U C99A C105A G126U
G34C C36U U111C A119G
G34C C95U A107U U148A
G34C G50C U101G C116G A147C
G34C G59A G112U A115U C125U

Polymerase ribozyme fitness (log ratio), -4.15:
U33G C95G C116A

Polymerase ribozyme fitness (log ratio), -3.86:
U33G G42C G88U G124U C125G

Polymerase ribozyme fitness (log ratio), -3.6:
U33G G83C

Polymerase ribozyme fitness (log ratio), -3.97:
U33C G68A
